Some of the results follow. Measured with an extract: partners may take part in the binding.

We go through 33 sequences from PMC6451091.

This assay has as its system PU.1 (endogenous, THP-1 nuclear extract) + IRF8 (endogenous, THP-1 nuclear extract). The assay is described as follows: nuclear extract protein-binding microarray (nextPBM). As to conditions: 20 mM HEPES pH 7.9, 100 mM NaCl, 1 mM DTT, 0.2 mg/mL BSA, 0.02% Triton X-100, 2% milk, 0.4 mg/mL salmon testes DNA; 1 h; temperature not stated; high values mean tight binding; double strand, one strand shown; sequences stand for … in GCCTAGCAC…GTGCTAGGTCTTGATTCGCTTGACGCTGCTG
Regarding TTGTATTTTTAGTAGAGACG, the binding signal is -0.695 z-score. The same measure for TGACATTGCAAACACATGGC: 0.0452 z-score; for TGGCCCAGAGCCGCCAAGTT: -0.125 z-score; for GACCTACCTGGTTGCTGGGG: 0.734 z-score. The same measure for GAGGGACGAGTCTACAGGGG: -0.0288 z-score; for GAGATCGTGCCATTGCACTC: -1.32 z-score. The result for CATGACATACAGAAATGGGT reads -0.0229 z-score; that for GGACACACCCAAATTACAAA, 0.516 z-score; that for GCCATGCCCATGTCTGGACT, 0.512 z-score. For the sequence AATTTGACTGCCTGAAAGAA, the binding signal is -0.675 z-score. The same measure for GGGATTACAGGCGTGAGCCA: 0.232 z-score; for AATTTTTTGTATTTTTAGTA: 0.555 z-score.

For TATCTGCTGTATATCATTGG, the binding signal stood at 0.398 z-score. The same measure for TGGCAGACTGCGTGAAACTA: 2.71 z-score; for TTGAAATTGTTCATTGTGTA: -1.46 z-score. GGGGTGCCATCAAAGTATCT: the binding signal came out at 0.901 z-score.

AAGAGGCCGAGGACCACAGC: the binding signal amounted to 1.06 z-score. Take TGACTGGAGTGTAATGAGGT: the binding signal was 0.357 z-score. The same measure for AGAATAGAGCCCACAGGACA: -0.287 z-score; for TCTACTCTCAAGGGCTTTGT: -0.46 z-score; for ACAAACAGAAGTTACCACTT: -1.72 z-score.

Regarding TCGTTGAGGGGAATTGGGGA, the binding signal was 0.195 z-score.

Consider CTCGAAAATGTGGGAAGTCT, for which the binding signal is -0.467 z-score. The same measure for TTTCAGGTAATTCTAATACA: 1.69 z-score; for AGTTGGGGAAGGGTGGGGCG: -2.02 z-score; for GCACATAGCCTGGCATTTAG: -0.81 z-score. The result for TAAAAGGAAAAGAGGGCTCC reads 0.634 z-score; that for ACTGTTGAACATGAGCAATT, -1.26 z-score; that for GCCACGTGGTGTATTATTCC, 0.676 z-score. In the case of CGGCGTCATGCTAACTTCTG, the binding signal was found to be 1.55 z-score. The same measure for GGGAACCAGAAAGTGAAAGA: 2.39 z-score; for GCATTCCGAGTTACTGGGAC: -0.59 z-score; for AGGTAACCATACTGTCTTGA: 1.85 z-score.
